Test results published in PubChem BioAssay AID686978 (National Center for Advancing Translational Sciences (NCATS), 2013).
Several values for one entry are separate records, joined by “and”; a condition that tells them apart may be missing. Identical values can stand only once. About 64,000 (15%) of roughly 420,000 compounds were called active. This list was built around the results that the source calls inconclusive (neither active nor inactive); the mix of calls is not that of the screen. Calls come from the whole dose curve; as a rule, active = well fitted inhibition curve with a large enough effect; inconclusive = small, poorly fitted or top-dose-only effect; inactive = flat fitted curve, though single readings scatter. Potencies beside an inconclusive call are fits to weak or partial responses and may not hold up.
% is set by controls: 0 for no effect and ±100 for the full control effect; potency is the fitted concentration of half-maximal effect; tags give direction and shape of the fitted curve.

Assay: qHTS for Inhibitors of human tyrosyl-DNA phosphodiesterase 1 (TDP1): qHTS in cells in absence of CPT; note: nearly all actives have a fitted effect of over 55% in size
Details: DT40 Tdp1-/- hTDP1 cells, no CPT, ATP luminescence, 48 h; activity change, negative = growth inhibition: at 46.2 µM (top of the series) unless noted
Summary of the method: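 Luminescent ATP content (CellTiter-Glo) served as the growth readout. Knockout chicken DT40 cells expressing human TDP1 were exposed to compounds without camptothecin for a minimum 48 hr at 37 °C.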
For Cc1ccc(N2C(=O)Nc3ccccc3S2(=O)=O)cc1Cl, the activity change, negative = growth inhibition was inconclusive: -30.5% [inhibitor].
In the case of Cc1ccc(C)c(S(=O)(=O)c2cn(C)c3cc(F)c(F)cc3c2=O)c1, the “activity change, negative = growth inhibition” value is reported as inactive: -16.1%.
With CSc1ccc(CN2CCC2(C)C(=O)NCc2ccc3c(c2)OCO3)cc1 (centres undefined) the Potency was inconclusive: 29.1 µM [inhibitor, single point].
In the case of CCN1c2ccccc2NC2C1C(C(C)=O)C(=O)N2c1ccc(Cl)cc1 (centres undefined), the Potency is reported as active: 16.4 µM.
With Cc1cc(C)c2sc(N(CCCN(C)C)C(=O)CN3C(=O)c4ccccc4C3=O)nc2c1 the Potency was inconclusive: 18.4 µM [inhibitor, single point].
For Cn1c(=O)[nH]c(=O)c2c1nc(NCCCn1ccnc1)n2CCOc1ccccc1, the activity change, negative = growth inhibition was inconclusive: -34.7% [inhibitor].
With Cc1oc(-c2ccccc2F)nc1CS(=O)(=O)CC(=O)N1CCN(c2ccc(Cl)cc2)CC1 the Potency was active: 20.6 µM.
In the case of O=C(COc1ccc2ccc(=O)oc2c1)N1CC[C@@]2(O)CCCC[C@H]2C1, the “activity change, negative = growth inhibition” value is reported as inactive: -0.44%.
In the case of Cc1nc(C)n(CC(O)COc2ccc(C(=O)c3ccccc3)cc2)n1 (centres undefined), the Potency is reported as inconclusive: 18.4 µM [inhibitor, single point].
In the case of COc1ccc(C(=O)N2CCOC2CNC(=O)C(=O)NCc2ccccn2)cc1 (centres undefined), the “activity change, negative = growth inhibition” value is reported as inactive: -13.2%.
For COc1ccc(CCNC(=O)Cn2nnc(C(=O)Nc3ccc(Br)cc3)c2N)cc1OC, the Potency was inconclusive: 16.4 µM [inhibitor, single point].
In the case of C[C@H]1CN([C@@H](C)CO)C(=O)c2cc(Br)cnc2O[C@H]1CN(C)S(=O)(=O)c1ccccc1F, the Potency is reported as inconclusive: 29.1 µM [inhibitor, single point].
With O=[N+]([O-])c1cccc2c(S(=O)(=O)N3CCCCC3)cccc12 the Potency was inconclusive: 23.1 µM [inhibitor, single point].
With COc1ccccc1N1CCN(C(=O)c2ccc(Cl)c(S(=O)(=O)N3CCOCC3)c2)CC1 the Potency was inconclusive: 18.4 µM [inhibitor, partial curve, poor fit].
In the case of CCN(CC)S(=O)(=O)c1ccc2[nH]cc(C(=O)NC3CC3)c(=O)c2c1, the Potency is reported as inconclusive: 29.1 µM [inhibitor, single point].
For O=C(Nc1cc(-c2nc3ncccc3o2)ccc1Cl)c1cccs1, the Potency was active: 20.6 µM.
In the case of COc1ccc(NC(=O)c2oc3ccccc3c2NC(=O)c2ccco2)cc1, the Potency is reported as active: 18.4 µM.
In the case of C=CCn1c(SCC(=O)NC(=O)NC)nnc1C1CCCCC1, the “activity change, negative = growth inhibition” value is reported as inactive: -0.074%.
In the case of CN(C)/C=C/C(=O)c1cccc(C(F)(F)F)c1, the “activity change, negative = growth inhibition” value is reported as inactive: -12.6%.
In the case of CCCCn1c(N)c(N(CC)C(=O)c2ccccc2C)c(=O)[nH]c1=O, the “activity change, negative = growth inhibition” value is reported as inactive: 9.8%.
With C[C@H](NC(=O)c1nc[nH]c1C(=O)N[C@@H](Cc1ccccc1)C(=O)OCc1ccccc1)C(=O)OCc1ccccc1 the Potency was active: 23.1 µM.
For COc1ccc(C2C(C#N)C(C#N)N3CCCN23)cc1 (centres undefined), the “activity change, negative = growth inhibition” value was inactive: -14.2%.
For Cc1ccccc1CN1C(=O)c2ccccc2S(=O)c2ccc(C(=O)NCc3ccco3)cc21 (centres undefined), the Potency was inconclusive: 29.1 µM [inhibitor, single point].
With Cc1[nH]c2ccc(C(=O)Nc3ccc(F)cc3)cc2c1C the Potency was inconclusive: 25.9 µM [inhibitor, single point].
For Clc1ccccc1C(c1nnnn1Cc1ccco1)N1CCN(Cc2ccco2)CC1 (centres undefined), the Potency was inconclusive: 29.1 µM [inhibitor, single point].
With CCOc1ncccc1C(=O)Nc1ccc(S(=O)(=O)Nc2nccs2)cc1 the “activity change, negative = growth inhibition” value was inactive: -27.8%.
With Cc1ccc(Cc2c(-c3ccccc3)nc3c(C)cc(Br)cn23)cc1 the Potency was active: 10.3 µM.
In the case of CCCCOC(=O)c1ccc(NC(=O)COC(=O)C2CC2C)cc1 (centres undefined), the Potency is reported as inconclusive: 25.9 µM [inhibitor, single point].
With O=C(Nc1ccccc1)c1ccccc1CCc1ccccc1 the “activity change, negative = growth inhibition” value was inactive: -27.1%.
In the case of CC(C)(C)Nc1nc(C(N)=O)nc(N2CCOCC2)n1, the Potency is reported as inconclusive: 18.4 µM [inhibitor, partial curve].
For Cc1cccc(NC(=O)N2C3CCCC2CC(NC(=O)C2CC2)C3)c1 (centres undefined), the “activity change, negative = growth inhibition” value was inactive: -8.38%.
In the case of CC1=CC(C)(C)NC(=O)N1c1ccc(C)cc1, the Potency is reported as inconclusive: 29.1 µM [inhibitor, single point].
With COc1ccc(N2CC(O)=C(c3nc(-c4ccc(Br)cc4)cs3)C2=N)cc1 the Potency was inconclusive: 29.1 µM [inhibitor, single point].
In the case of Cc1ccc(OC(C)C(=O)Nc2ccc(C)c(S(=O)(=O)Nc3ccc(C)cc3C)c2)cc1 (centres undefined), the Potency is reported as inconclusive: 29.1 µM [inhibitor, single point].
In the case of Cn1c(-c2csc(-c3cccc(C(F)(F)F)c3)n2)n[nH]c1=S, the Potency is reported as inconclusive: 29.1 µM [inhibitor, single point].
In the case of Cc1noc(C)c1C(=O)N1CCC2(CC1)CCN(C(c1ccccc1)c1ccccc1)CC2, the Potency is reported as inconclusive: 20.6 µM [inhibitor, single point].
For COc1ccc2[nH]c(C(=O)N3CCc4ccccc4C3)c(C)c2c1, the Potency was inconclusive: 29.1 µM [inhibitor, single point].
With COc1ccccc1N(CN1C(=O)c2ccccc2C1=O)C(=O)c1cccc(C)c1 the Potency was inconclusive: 16.4 µM [inhibitor, single point].
With CCOC(=O)C1CCN(c2ccc([N+](=O)[O-])c(C(C)=O)c2)CC1 the Potency was inconclusive: 25.9 µM [inhibitor, single point].
For O=S(=O)(c1ccc(Br)cc1)c1nc(-c2cccs2)oc1SCc1ccc(F)cc1, the Potency was inconclusive: 20.6 µM [inhibitor, single point].
For CCn1c(COc2cccc(C)c2)nc2ccccc21, the Potency was inconclusive: 29.1 µM [inhibitor, single point] and inconclusive: 18.4 µM [inhibitor, partial curve].
In the case of S=C1NCCOCCOCCOCCOCCNC(=S)NCCOCCOCCOCCOCCN1, the “activity change, negative = growth inhibition” value is reported as inactive: 13%.
With Cc1cccc(-c2cnc(C(O)c3ccc(-c4ccccc4)cc3)[nH]2)c1 (centres undefined) the Potency was active: 23.1 µM.
With CC1CCCC(C)N1C(=O)COC(=O)c1ccccc1C(=O)c1ccccc1 (centres undefined) the Potency was inconclusive: 29.1 µM [inhibitor, single point].
For O=C(COc1ccc(/C=N/NC(=O)c2ccc(O)cc2)cc1)Nc1ccc([N+](=O)[O-])cc1, the “activity change, negative = growth inhibition” value was inactive: -17.6%.
In the case of COc1ccc(C(CNC(=O)CCC(=O)c2ccc(C)s2)N2CCOCC2)cc1 (centres undefined), the “activity change, negative = growth inhibition” value is reported as inactive: -13.9%.
With CONC(=O)C1CCN(C(=O)OCc2ccccc2)CC1 the “activity change, negative = growth inhibition” value was inactive: 2.66%.
For Cc1ccc(C)c(N2CCN(C(=O)C3CCN(C(=O)c4cc5sccc5n4C)CC3)CC2)c1, the Potency was active: 8.2 µM.
For Cc1csc(SCC(=O)N(C)C2CCS(=O)(=O)C2)n1 (centres undefined), the “activity change, negative = growth inhibition” value was inactive: 14.6%.
For O=C(NNC(=S)Nc1ccc(F)c(Cl)c1)c1ccccc1Br, the Potency was inconclusive: 20.6 µM [inhibitor, single point].
With Cc1cc(C)c(Cc2c(C)nc3c(C(=O)NCc4ccco4)cnn3c2C)c(C)c1 the Potency was active: 8.2 µM.
For COc1cc2c(cc1NC(=O)COc1ccc(Br)cc1C)oc1ccccc12, the “activity change, negative = growth inhibition” value was inactive: -4.22%.
In the case of Cc1ccc(C2N(c3ccc(Cl)cc3)C(=O)N3CCCN23)cc1 (centres undefined), the Potency is reported as active: 14.6 µM.
With CN(C)S(=O)(=O)c1ccc(C(=O)NCc2ccccc2)cc1 the “activity change, negative = growth inhibition” value was inactive: -27.6%.
With COc1ccc(S(=O)(=O)N2CCC(C(=O)N[C@@H](C)C(=O)NC3CCCC3)CC2)cc1 the Potency was inconclusive: 18.4 µM [inhibitor, single point].
With CCCNC(=O)C1(C)CCN1C(=O)Cc1ccc(-c2ccccc2)cc1 (centres undefined) the Potency was active: 9.2 µM.
For CC(C)CCNC(=O)C1CCC(CNc2c(N3CCC(C)CC3)c(=O)c2=O)CC1 (centres undefined), the “activity change, negative = growth inhibition” value was inactive: 4.09%.
With CN(C(=O)c1ccc(NC(=O)Cc2ccc(NC(=O)C3CCN(C(=O)C4CCCC4)CC3)cc2)cc1)C1CC1 the Potency was inconclusive: 14.6 µM [inhibitor, partial curve, poor fit].
In the case of COc1ccc(N(CC(=O)Nc2nccs2)S(=O)(=O)c2c(C)[nH]c(=O)[nH]c2=O)cc1, the “activity change, negative = growth inhibition” value is reported as inactive: 7.89%.
In the case of CCn1c(SCC(=O)Nc2ccccc2)nc2c([nH]c3ccccc32)c1=O, the Potency is reported as inconclusive: 20.6 µM [inhibitor, single point].
For CC(=C\c1ccccc1)/C=C1/SC(=O)N(CCCC(=O)Nc2ccc(C(=O)O)cc2)C1=O, the Potency was inconclusive: 20.6 µM [inhibitor, partial curve].
In the case of CC(C)CCNC(=O)CCC(=O)N1Cc2ccccc2Oc2ncccc21, the “activity change, negative = growth inhibition” value is reported as inactive: -3.95%.
With OC(c1cccc(Cl)c1)c1ncc(-c2ccc(Oc3ccccc3)cc2)[nH]1 (centres undefined) the Potency was inconclusive: 14.6 µM [inhibitor, single point].
With Cc1cc2c(cc1S(=O)(=O)NCc1ccccc1)OCC(=O)N2 the Potency was “inactive”.
In the case of Cc1ccc(NC(=O)c2ccc(COc3ccccc3Cl)o2)cc1, the Potency is reported as inconclusive: 23.1 µM [inhibitor, single point].
In the case of COc1ccc(NC(=O)CCCSc2nc(-c3ccco3)cc(C(F)(F)F)n2)cc1, the Potency is reported as inconclusive: 29.1 µM [inhibitor, single point].
For COc1ccc(S(=O)(=O)N2CCN(C)CC2)cc1C(=O)Nc1ccccc1, the “activity change, negative = growth inhibition” value was inactive: -2.21%.
For O=S(=O)(c1ccccc1)N1CCN(C(=S)NCc2ccccc2)CC1, the Potency was inconclusive: 20.6 µM [inhibitor, single point].
In the case of Cc1csc(NC(=O)CCCc2cccs2)n1, the Potency is reported as inconclusive: 16.4 µM [inhibitor, partial curve].
For COc1ccc(C(=O)CC(=O)C(=O)Nc2cccc([N+](=O)[O-])c2C)cc1, the Potency was active: 16.4 µM.
For O=C(CCC(=O)N1CCOCC1)c1ccc(F)cc1, the “activity change, negative = growth inhibition” value was inactive: -1.47%.
In the case of NC(=O)C1CCCN(CCc2ccccc2)C1 (centres undefined), the “activity change, negative = growth inhibition” value is reported as inactive: -10.8%.
With CCNc1ncc2nc(-c3cccs3)c(=O)n(CCC#N)c2n1 the “activity change, negative = growth inhibition” value was inactive: -12.7%.
In the case of Cc1c(C(=O)Nc2cc(S(=O)(=O)N3CCOCC3)ccc2N2CCOCC2)oc2ccccc12, the Potency is reported as inconclusive: 16.4 µM [inhibitor, single point].
